Measured values as given in paper PMC5062570 (Nature Communications, 2016).

Assays:
[1] = biological target: PF-7802-labelled proteins in ARPE-19 cells (Homo sapiens, UniProt Q15366); conditions: protein PCBP2 Poly(rC)-binding protein 2 (Q15366); replicates in separate columns
[2] = biological target: PF-7802-labelled proteins in ARPE-19 cells (Homo sapiens, UniProt Q07157); conditions: TJP1 Tight junction protein ZO-1 (Q07157)
[3] = biological target: PF-7802-labelled proteins in ARPE-19 cells (Homo sapiens, UniProt P42785); conditions: protein PRCP Lysosomal Pro-X carboxypeptidase, P42785
[4] = biological target: PF-7802-labelled proteins in ARPE-19 cells (Homo sapiens, UniProt P47985); conditions: UQCRFS1 Cytochrome b-c1 complex subunit Rieske, mitochondrial (P47985)
UniProt P47985, sequence (P47985 whole entry): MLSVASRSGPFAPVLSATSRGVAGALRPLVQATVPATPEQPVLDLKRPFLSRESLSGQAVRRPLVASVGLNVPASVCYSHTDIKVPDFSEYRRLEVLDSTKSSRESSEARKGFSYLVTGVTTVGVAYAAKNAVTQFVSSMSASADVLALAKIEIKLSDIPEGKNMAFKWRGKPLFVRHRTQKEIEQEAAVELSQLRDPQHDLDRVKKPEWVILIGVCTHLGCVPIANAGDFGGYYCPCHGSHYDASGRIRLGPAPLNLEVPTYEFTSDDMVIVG

[5] = biological target: PF-7802-labelled proteins in ARPE-19 cells (Homo sapiens, UniProt P36542); conditions: protein ATP5C1 ATP synthase subunit gamma, mitochondrial (P36542)
[6] = biological target: PF-7802-labelled proteins in ARPE-19 cells (Homo sapiens, UniProt Q06323); conditions: protein PSME1 Proteasome activator complex subunit 1, Q06323
[7] = biological target: PF-7802-labelled proteins in ARPE-19 cells (Homo sapiens, UniProt P07355)
UniProt P07355, sequence (P07355 whole entry): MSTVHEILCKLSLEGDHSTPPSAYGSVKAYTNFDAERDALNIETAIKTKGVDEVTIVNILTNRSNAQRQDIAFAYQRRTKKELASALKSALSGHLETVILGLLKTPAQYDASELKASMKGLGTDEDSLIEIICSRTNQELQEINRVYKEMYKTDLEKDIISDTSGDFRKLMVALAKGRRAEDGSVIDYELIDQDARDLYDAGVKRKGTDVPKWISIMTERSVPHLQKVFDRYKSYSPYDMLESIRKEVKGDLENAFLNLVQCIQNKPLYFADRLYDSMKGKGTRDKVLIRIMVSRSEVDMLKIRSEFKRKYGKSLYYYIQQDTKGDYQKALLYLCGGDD

[8] = biological target: PF-7802-labelled proteins in ARPE-19 cells (Homo sapiens, UniProt O75367); conditions: O75367 H2AFY Core histone macro-H2A.1
UniProt O75367, sequence (O75367 whole entry): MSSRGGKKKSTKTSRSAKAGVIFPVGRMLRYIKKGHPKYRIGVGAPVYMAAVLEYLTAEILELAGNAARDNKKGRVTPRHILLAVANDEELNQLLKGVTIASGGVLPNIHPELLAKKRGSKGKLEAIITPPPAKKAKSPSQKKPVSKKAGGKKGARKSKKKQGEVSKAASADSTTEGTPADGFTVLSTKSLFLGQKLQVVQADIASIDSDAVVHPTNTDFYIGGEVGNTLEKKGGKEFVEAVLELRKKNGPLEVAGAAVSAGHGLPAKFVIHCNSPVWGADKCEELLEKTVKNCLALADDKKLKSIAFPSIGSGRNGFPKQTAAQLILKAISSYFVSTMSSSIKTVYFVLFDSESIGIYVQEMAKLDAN

[9] = biological target: PF-7802-labelled proteins in ARPE-19 cells (Homo sapiens, UniProt Q6P2Q9); conditions: protein PRPF8 Pre-mRNA-processing-splicing factor 8, Q6P2Q9
[10] = biological target: PF-7802-labelled proteins in ARPE-19 cells (Homo sapiens, UniProt Q01081); conditions: U2AF1 Splicing factor U2AF 35 kDa subunit (Q01081)
UniProt Q01081, sequence (Q01081 whole entry): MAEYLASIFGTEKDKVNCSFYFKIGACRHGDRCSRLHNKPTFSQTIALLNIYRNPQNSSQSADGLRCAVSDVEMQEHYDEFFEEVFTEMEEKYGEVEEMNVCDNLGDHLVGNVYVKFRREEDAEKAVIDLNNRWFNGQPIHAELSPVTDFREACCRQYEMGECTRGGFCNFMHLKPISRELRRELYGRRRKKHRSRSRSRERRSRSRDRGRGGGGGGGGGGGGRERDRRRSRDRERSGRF

[11] = biological target: PF-7802-labelled proteins in ARPE-19 cells (Homo sapiens, UniProt P62070)
UniProt P62070, sequence (P62070 whole entry): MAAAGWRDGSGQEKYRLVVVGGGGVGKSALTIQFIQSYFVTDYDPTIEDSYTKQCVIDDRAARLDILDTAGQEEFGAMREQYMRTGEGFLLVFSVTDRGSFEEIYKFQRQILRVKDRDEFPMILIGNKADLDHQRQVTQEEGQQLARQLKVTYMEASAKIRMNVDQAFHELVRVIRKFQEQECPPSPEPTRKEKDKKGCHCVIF

[12] = biological target: PF-7802-labelled proteins in ARPE-19 cells (Homo sapiens, UniProt Q06830); conditions: protein PRDX1 Peroxiredoxin-1, Q06830
UniProt Q06830, sequence (Q06830 whole entry): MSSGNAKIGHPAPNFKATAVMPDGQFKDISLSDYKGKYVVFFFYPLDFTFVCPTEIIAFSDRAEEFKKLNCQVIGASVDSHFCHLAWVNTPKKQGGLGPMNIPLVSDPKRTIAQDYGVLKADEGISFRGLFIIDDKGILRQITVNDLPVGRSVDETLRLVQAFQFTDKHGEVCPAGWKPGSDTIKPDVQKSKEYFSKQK

[13] = biological target: PF-7802-labelled proteins in ARPE-19 cells (Homo sapiens, UniProt P13612); conditions: protein ITGA4 Integrin alpha-4 (P13612); one column per replicate
[14] = biological target: PF-7802-labelled proteins in ARPE-19 cells (Homo sapiens, UniProt Q9UHD8)
UniProt Q9UHD8, sequence (Q9UHD8 whole entry): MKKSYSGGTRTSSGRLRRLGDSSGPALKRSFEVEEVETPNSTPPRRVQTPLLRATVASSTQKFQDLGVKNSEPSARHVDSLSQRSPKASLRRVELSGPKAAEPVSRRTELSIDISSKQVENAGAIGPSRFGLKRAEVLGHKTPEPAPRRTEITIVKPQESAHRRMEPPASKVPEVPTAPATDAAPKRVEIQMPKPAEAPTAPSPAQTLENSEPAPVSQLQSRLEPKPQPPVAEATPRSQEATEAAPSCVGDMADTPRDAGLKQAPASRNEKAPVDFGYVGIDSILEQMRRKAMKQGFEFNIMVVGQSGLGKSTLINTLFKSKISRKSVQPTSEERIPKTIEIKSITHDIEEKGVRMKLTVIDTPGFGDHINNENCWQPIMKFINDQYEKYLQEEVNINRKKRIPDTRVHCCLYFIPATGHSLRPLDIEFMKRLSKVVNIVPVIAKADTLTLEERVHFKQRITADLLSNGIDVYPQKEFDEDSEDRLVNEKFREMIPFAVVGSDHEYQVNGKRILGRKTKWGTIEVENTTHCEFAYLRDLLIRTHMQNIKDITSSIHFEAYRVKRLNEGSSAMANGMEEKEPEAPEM

[15] = biological target: PF-7802-labelled proteins in ARPE-19 cells (Homo sapiens, UniProt P22626)
UniProt P22626, sequence (P22626 whole entry): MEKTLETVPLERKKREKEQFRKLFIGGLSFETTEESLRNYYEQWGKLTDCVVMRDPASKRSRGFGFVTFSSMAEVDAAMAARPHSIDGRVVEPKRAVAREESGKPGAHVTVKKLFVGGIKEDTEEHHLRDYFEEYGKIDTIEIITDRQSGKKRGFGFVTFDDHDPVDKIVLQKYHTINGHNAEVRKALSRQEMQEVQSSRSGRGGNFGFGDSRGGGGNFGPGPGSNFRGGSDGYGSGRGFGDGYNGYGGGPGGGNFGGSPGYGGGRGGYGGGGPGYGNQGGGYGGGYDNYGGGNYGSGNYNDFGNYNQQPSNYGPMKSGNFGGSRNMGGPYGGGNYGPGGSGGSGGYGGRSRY

[16] = biological target: PF-7802-labelled proteins in ARPE-19 cells (Homo sapiens, UniProt P32322); conditions: protein PYCR1 Pyrroline-5-carboxylate reductase 1, mitochondrial, P32322
UniProt P32322, sequence (P32322 whole entry): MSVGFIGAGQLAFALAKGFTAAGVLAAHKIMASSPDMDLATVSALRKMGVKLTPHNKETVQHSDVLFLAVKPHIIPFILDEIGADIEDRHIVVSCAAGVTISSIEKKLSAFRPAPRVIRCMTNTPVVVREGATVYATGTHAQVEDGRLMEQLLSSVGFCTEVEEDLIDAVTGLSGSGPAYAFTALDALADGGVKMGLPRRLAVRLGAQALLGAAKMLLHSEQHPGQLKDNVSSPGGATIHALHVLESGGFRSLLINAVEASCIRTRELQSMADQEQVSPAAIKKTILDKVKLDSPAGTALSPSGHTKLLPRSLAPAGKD

[17] = biological target: PF-7802-labelled proteins in ARPE-19 cells (Homo sapiens, UniProt P40939); conditions: P40939 HADHA Trifunctional enzyme subunit alpha, mitochondrial
[18] = biological target: PF-7802-labelled proteins in ARPE-19 cells (Homo sapiens, UniProt P07437)
UniProt P07437, sequence (P07437 whole entry): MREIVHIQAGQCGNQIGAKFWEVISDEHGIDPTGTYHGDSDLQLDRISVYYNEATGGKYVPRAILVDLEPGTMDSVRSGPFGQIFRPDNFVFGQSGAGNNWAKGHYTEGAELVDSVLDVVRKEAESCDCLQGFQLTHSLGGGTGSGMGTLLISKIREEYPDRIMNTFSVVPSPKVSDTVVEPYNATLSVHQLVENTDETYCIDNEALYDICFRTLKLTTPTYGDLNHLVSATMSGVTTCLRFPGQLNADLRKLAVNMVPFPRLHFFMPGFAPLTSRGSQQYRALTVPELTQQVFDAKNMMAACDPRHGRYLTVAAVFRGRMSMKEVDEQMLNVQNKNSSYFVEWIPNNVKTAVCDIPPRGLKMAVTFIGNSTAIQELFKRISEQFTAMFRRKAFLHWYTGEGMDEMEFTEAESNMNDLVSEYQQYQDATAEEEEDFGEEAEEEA

[19] = biological target: PF-7802-labelled proteins in ARPE-19 cells (Homo sapiens, UniProt P27816); conditions: protein MAP4 Microtubule-associated protein 4 (P27816); replicates in separate columns
UniProt P27816, sequence (P27816 whole entry): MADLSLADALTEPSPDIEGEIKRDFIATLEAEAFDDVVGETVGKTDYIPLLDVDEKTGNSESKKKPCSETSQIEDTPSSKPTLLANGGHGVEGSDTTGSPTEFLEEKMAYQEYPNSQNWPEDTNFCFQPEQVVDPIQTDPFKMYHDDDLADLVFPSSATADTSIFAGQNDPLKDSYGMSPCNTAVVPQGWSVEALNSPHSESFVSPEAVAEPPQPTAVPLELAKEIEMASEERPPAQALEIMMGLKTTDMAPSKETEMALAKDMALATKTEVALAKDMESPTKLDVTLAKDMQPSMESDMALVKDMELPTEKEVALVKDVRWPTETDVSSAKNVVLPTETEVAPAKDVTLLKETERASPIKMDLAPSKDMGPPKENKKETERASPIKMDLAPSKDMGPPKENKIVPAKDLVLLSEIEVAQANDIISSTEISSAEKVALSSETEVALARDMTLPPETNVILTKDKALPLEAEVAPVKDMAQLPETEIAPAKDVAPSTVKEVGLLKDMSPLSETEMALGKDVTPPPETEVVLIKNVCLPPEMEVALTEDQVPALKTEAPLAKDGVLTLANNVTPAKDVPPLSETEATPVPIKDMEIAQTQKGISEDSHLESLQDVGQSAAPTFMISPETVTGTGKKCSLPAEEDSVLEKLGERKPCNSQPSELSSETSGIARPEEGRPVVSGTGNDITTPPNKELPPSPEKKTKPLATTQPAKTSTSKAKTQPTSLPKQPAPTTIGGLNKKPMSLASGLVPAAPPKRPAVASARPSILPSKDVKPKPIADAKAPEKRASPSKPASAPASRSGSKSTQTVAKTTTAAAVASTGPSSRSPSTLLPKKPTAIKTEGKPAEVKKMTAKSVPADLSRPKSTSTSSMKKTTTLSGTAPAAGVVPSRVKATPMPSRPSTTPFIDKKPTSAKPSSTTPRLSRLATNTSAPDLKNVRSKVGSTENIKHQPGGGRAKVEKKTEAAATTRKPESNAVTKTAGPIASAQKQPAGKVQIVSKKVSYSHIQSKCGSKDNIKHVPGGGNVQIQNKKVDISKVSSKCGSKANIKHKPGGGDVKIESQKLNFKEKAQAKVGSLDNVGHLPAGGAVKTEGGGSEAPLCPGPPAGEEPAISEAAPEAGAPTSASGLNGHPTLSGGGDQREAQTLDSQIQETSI

[20] = biological target: PF-7802-labelled proteins in ARPE-19 cells (Homo sapiens, UniProt Q99623); conditions: protein PHB2 Prohibitin-2 (Q99623); replicates in separate columns
[21] = biological target: PF-7802-labelled proteins in ARPE-19 cells (Homo sapiens, UniProt P61916); conditions: protein NPC2 Epididymal secretory protein E1 (P61916); replicates in separate columns
[22] = biological target: PF-7802-labelled proteins in ARPE-19 cells (Homo sapiens, UniProt P09651)
UniProt P09651, sequence (P09651 whole entry): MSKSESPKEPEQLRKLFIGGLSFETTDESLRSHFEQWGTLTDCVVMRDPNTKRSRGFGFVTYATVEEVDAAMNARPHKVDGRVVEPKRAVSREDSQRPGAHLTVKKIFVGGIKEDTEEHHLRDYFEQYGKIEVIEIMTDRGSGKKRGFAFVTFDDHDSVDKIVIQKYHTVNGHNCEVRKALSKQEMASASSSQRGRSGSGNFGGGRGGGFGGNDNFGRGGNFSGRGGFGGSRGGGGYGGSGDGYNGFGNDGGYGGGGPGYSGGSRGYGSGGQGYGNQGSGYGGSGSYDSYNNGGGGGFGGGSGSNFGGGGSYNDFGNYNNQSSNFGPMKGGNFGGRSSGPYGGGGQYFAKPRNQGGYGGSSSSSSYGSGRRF

[23] = biological target: PF-7802-labelled proteins in ARPE-19 cells (Homo sapiens, UniProt O00592); conditions: protein PODXL Podocalyxin (O00592); replicates in separate columns

With `Cc1cc([C@H]2C[C@H]3[C@@H](C)SC(N)=N[C@@]3(c3ccc(F)cc3F)CO2)on1` [PF-9283] the “Median SILAC Ratio (Heavy/Light)” value [1] was 3.513, the “Median SILAC Ratio (Heavy/Light)” value [2] was 1.387 and the “Median SILAC Ratio (Heavy/Light)” value [3] was 1.1158. The “Median SILAC Ratio (Heavy/Light)” value [4] was 0.7276, the “Median SILAC Ratio (Heavy/Light)” value [5] was 1.273 and the “Median SILAC Ratio (Heavy/Light)” value [6] was 0.5604.
In the case of `CNC1CCN(C(=O)C[C@@H](Cc2ccccc2)C(=O)N[C@@H](CSC)C(=O)N[C@@H](CC2CCCCC2)[C@@H](O)C(=O)OC(C)C)CC1` [CP-108671, reference compound], the “SILAC ratio (DMSO/CP-108671)” value ([7]; P07355 ANXA2 Annexin A2) was 0.82, the “Median SILAC Ratio (Heavy/Light)” value ([7]; protein ANXA2 Annexin A2 (P07355)) was 1.239 and 1.115 and the “SILAC ratio (DMSO/CP-108671)” value [8] was 0.88. The “Median SILAC Ratio (Heavy/Light)” value [9] was 1.177, the “Median SILAC Ratio (Heavy/Light)” value [10] was 0.6002 and the “SILAC ratio (DMSO/CP-108671)” value ([11]; P62070 RRAS2 Ras-related protein R-Ras2) was 0.88. For the same compound, the “Median SILAC Ratio (Heavy/Light)” value ([11]; protein RRAS2 Ras-related protein R-Ras2, P62070) was 1.131, the “Median SILAC Ratio (Heavy/Light)” value [12] was 2.139 and the “Median SILAC Ratio (Heavy/Light)” value [13] was 1.271. For the same compound, the “SILAC ratio (DMSO/CP-108671)” value ([14]; Q9UHD8 SEPT9 Septin-9) was 0.67, the “Median SILAC Ratio (Heavy/Light)” value ([14]; SEPT9 Septin-9 (Q9UHD8)) was 1.4989 and the “SILAC ratio (DMSO/CP-108671)” value ([15]; P22626 HNRNPA2B1 Heterogeneous nuclear ribonucleoproteins A2/B1) was 0.94. For the same compound, the “Median SILAC Ratio (Heavy/Light)” value ([15]; protein HNRNPA2B1 Heterogeneous nuclear ribonucleoproteins A2/B1 (P22626), one column per replicate) was 1.089 and 0.9918, the “Median SILAC Ratio (Heavy/Light)” value [16] was 0.367 and the “SILAC ratio (DMSO/CP-108671)” value [17] was 0.84. The “SILAC ratio (DMSO/CP-108671)” value ([18]; P07437 TUBB Tubulin beta chain) was 0.42, the “Median SILAC Ratio (Heavy/Light)” value ([18]; TUBB Tubulin beta chain (P07437)) was 2.354 and 1.333 and the “Median SILAC Ratio (Heavy/Light)” value [19] was 1.791. The “Median SILAC Ratio (Heavy/Light)” value [20] was 2.256, the “Median SILAC Ratio (Heavy/Light)” value [21] was 0.6581 and the “SILAC ratio (DMSO/CP-108671)” value ([22]; P09651 HNRNPA1 Heterogeneous nuclear ribonucleoprotein A1) was 0.88. For the same compound, the “Median SILAC Ratio (Heavy/Light)” value ([22]; protein HNRNPA1 Heterogeneous nuclear ribonucleoprotein A1 (P09651), one column per replicate) was 1.142 and 0.9281 and the “Median SILAC Ratio (Heavy/Light)” value [23] was 1.034.

Several values for one entry are separate records, joined by “and”; a condition that tells them apart may be missing. Equal values may be shown once.
